Data from PubChem BioAssay AID686979 (National Center for Advancing Translational Sciences (NCATS), 2013).
Values joined by “and” are separate entries in the source; they are usually repeats but may differ in a detail not shown here. Equal values may be shown once. Screen size: about 420,000 compounds; about 50,000 (12%) were called active. This list was built around the results that the source calls inconclusive (neither active nor inactive); the mix of calls is not that of the screen. Calls come from the whole dose curve; as a rule, active = well fitted inhibition curve with a large enough effect; inconclusive = small, poorly fitted or top-dose-only effect; inactive = flat fitted curve, though single readings scatter. Potencies of inconclusive entries are doubtful fits and often do not repeat.

Assay: qHTS for Inhibitors of human tyrosyl-DNA phosphodiesterase 1 (TDP1): qHTS in cells in presence of CPT; note: nearly all actives have a fitted effect of over 55% in size
Conditions: chicken DT40 Tdp1-/-;hTDP1 cells + 20 nM CPT, ATP luminescence, 48 h; activity change, negative = growth inhibition: at 46.2 µM (top of the series) unless noted
Summary of the method: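 Cell growth measured by CellTiter-Glo luminescence after a minimum 48 h, 37 C compound exposure with 20 nM CPT in Tdp1-knockout DT40 cells stably expressing hTDP1, seeded 400/well; qHTS titration format.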
% is set by controls: 0 for no effect and ±100 for the full control effect; potency is the fitted concentration of half-maximal effect; tags give direction and shape of the fitted curve.

Compound	Potency	activity change, negative = growth inhibition
COc1ccccc1/C=C/C(=O)Nc1cccc(S(=O)(=O)NC2=NCCCCC2)c1	inconclusive: 29.1 µM [inhibitor, single point]	
CCc1nc2ccccc2n1CC(O)COCC1CC=CCC1 (centres undefined)	inconclusive: 23.1 µM [inhibitor, single point]	
Cc1cc(Cl)c2cc3ccccc3cc2n1	inconclusive: 29.1 µM [inhibitor, single point]	
Cc1cc(NC(=O)c2cccs2)no1	inconclusive: 6.51 µM [inhibitor, single point]	
COC(=O)c1ccccc1NC(=O)C1CCCN(c2nnc(-n3cccc3)s2)C1 (centres undefined)	active: 16.4 µM	
S=C(NCCC(c1ccccc1)c1ccccc1)Nc1ccccc1Cl		inconclusive: -31.3% [inhibitor]
CC1(C)CC(NC(=S)NC2CC2)CC(C)(C)N1		inactive: 20.9%
O=C(Nc1cccc(S(=O)(=O)NC2=NCCCCC2)c1)c1ccc(Cl)cc1	active: 23.1 µM	
Cc1csc(SCc2ccc(C(=O)O)cc2)n1		inactive: 1.6%
Cc1ccc(S(=O)(=O)CCC(=O)NCc2ccc(Cl)cc2)cc1		inactive: 3.03%
CN(c1nc2c(c(=O)n(C)c(=O)n2C)n1CC(=O)c1ccccc1)C1CCCCC1	inconclusive: 29.1 µM [inhibitor, single point]	
COc1nc(C)cc(C)c1S(=O)(=O)c1ccccc1C		inactive: -2.44%
CCOc1ccc(CCNC(=O)CCC(=O)Nc2ccc3nc(N4CCN(C)CC4)cc(C)c3c2)cc1OCC		inconclusive: -32.8% [inhibitor]
CC(C)(C)NC(=O)C[C@H]1C[C@H](C(=O)N2CCCCC2)[C@@]2(CCc3ccccc3)c3[nH]c4cc(-c5ccco5)ccc4c3CCN2C1=O	active: 18.4 µM	
COc1ccc2oc(C(=O)Nc3ccc(N4CCOCC4)cc3)c(C)c2c1	inconclusive: 20.6 µM [inhibitor, single point]	
COc1cccc(CN2CCC2(C)C(=O)Nc2ccc(C)c(O)c2)c1F (centres undefined)	active: 11.6 µM	
Brc1ccc(OCc2cn3ccccc3n2)cc1		inactive: -8.43%
COc1ccc(CCNC(=O)Nc2ccc3c(c2)c(=O)n(C)n3CC=C(C)C)cc1OC	inconclusive: 32.6 µM [inhibitor, partial curve, poor fit]	
O=[N+]([O-])c1ccc2c(c1)ncn2-c1ccccc1	inconclusive: 5.8 µM [inhibitor, full curve, poor fit]	
CC(C)c1nc2ccc(C(=O)NCCCN3CCN(c4cccc(Cl)c4)CC3)cc2o1	active: 18.4 µM	
CC(C)(C)NC(=O)C(c1ccc(F)cc1)N(Cc1ccco1)C(=O)c1csnn1 (centres undefined)		inconclusive: -31.3% [inhibitor]
CC1(C(=O)NS(=O)(=O)c2cccc(OC(F)F)c2)CCN1C(=O)CCc1cccs1 (centres undefined)		inactive: -2.42%
CC(C)CNC(=O)C1(C)CCCCCN1C(=O)c1cccnc1 (centres undefined)		inactive: -0.884%

Compound	Potency	activity change, negative = growth inhibition
Cc1ccc(C)c(OCC(=O)Nc2ccc(S(=O)(=O)Nc3ccccn3)cc2)c1C	inconclusive: 14.6 µM [inhibitor, partial curve]	
COC(=O)/C=C/c1ccc2c(c1)S(=O)(=O)N(Cc1ccc(OC)cc1)[C@H]2CC(=O)OC	inconclusive: 23.1 µM [inhibitor, partial curve, poor fit]	
O=C(NC(=S)Nc1cccc(NC(=O)c2ccc(Cl)cc2Cl)c1)c1cccs1	inconclusive: 29.1 µM [inhibitor, single point]	
Cc1cc(C)cc(NC(=O)CSCc2cnn(-c3ccccc3)c2-n2cccc2)c1	inconclusive: 18.4 µM [inhibitor, single point]	
COc1ccc(C2CC(c3ccccc3)=NN2C(=O)COC(=O)c2cccc(O)c2)cc1 (centres undefined)	inconclusive: 25.9 µM [inhibitor, single point]	
NS(=O)(=O)c1ccc(CCNC(=O)CNCCc2ccc(C(F)(F)F)cc2)cc1	inconclusive: 23.1 µM [inhibitor, single point]	
CC(NC(=O)c1ccc2c(c1)OCO2)C(c1cccs1)N1CCN(c2ccccc2)CC1 (centres undefined)	inconclusive: 20.6 µM [inhibitor, single point]	
CCCN(Cc1nnc(-c2ccccc2Cl)o1)C(=O)c1cc(S(=O)(=O)N2CCOCC2)ccc1F	inconclusive: 18.4 µM [inhibitor, single point]	
COC(=O)c1ccc(CNc2ccc(C(C)=O)cc2)cc1	inconclusive: 23.1 µM [inhibitor, single point]	
CCOC(=O)C1CCC(CN(Cc2ccc(Cl)cc2)S(=O)(=O)c2cc(Cl)cc(Cl)c2)CC1 (centres undefined)	active: 20.6 µM	
O=C(CN1CCCCC1)N1CCCc2c1c(=O)oc1ccc(OCc3ccccc3)cc21	inconclusive: 29.1 µM [inhibitor, single point]	
Cc1cccc(N2CCN(C(=O)C3CCCN(S(=O)(=O)c4ccc(Br)s4)C3)CC2)c1C (centres undefined)	active: 9.2 µM	
COC(=O)c1ccccc1NC(=S)NC(=O)c1ccc(C)cc1	inconclusive: 29.1 µM [inhibitor, single point]	
CCOc1ccccc1NC(=O)Cn1nnc(C(=O)NCc2ccco2)c1N	active: 0.0092 µM	
CCCN1CNc2c(c(=O)[nH]c(=S)n2CCc2cc(Cl)cc(Cl)c2)C1	active: 5.62 µM	
N#CCCn1cc(/C=C2\NC(=S)N(c3ccccc3)C2=O)c(-c2ccc(-c3ccccc3)cc2)n1	active: 6.51 µM	
CCNC(=S)NS(=O)(=O)c1ccc(Cl)cc1		inactive: -10.2%
CC(C)(C)NC(=O)C1CCC(C)(C(=O)O)C1(C)C (centres undefined)		inactive: -1.77%
O=c1c(-c2ccc(Cl)cc2)nc2cnc(N3CCNCC3)nc2n1CCc1ccccc1	active: 11.6 µM	
CSCCC(N=C(NS(=O)(=O)c1ccccc1)c1ccccc1)C(=O)O (centres undefined)		inactive: -22.2%
COc1ccc(NC(=O)COc2coc(CN3c4ccccc4CC3C)cc2=O)cc1 (centres undefined)		inactive: -25.4%
CCN(CC)S(=O)(=O)c1ccc(C(=O)N2CCN(C(=O)c3ccco3)CC2)cc1		inactive: -6.97%
O=C(/C=C1\SC(=O)NC1=O)Nc1ccc(F)cc1	inconclusive: 29.1 µM [inhibitor, single point]	

Compound	Potency	activity change, negative = growth inhibition
CCc1cc[n+](C(C(=S)Nc2cccc(C)c2)=C([O-])c2ccc(C)c([N+](=O)[O-])c2)cc1	active: 16.4 µM	
Cc1ccc(NC(=O)CSc2nnc(NC(=O)c3ccc(S(=O)(=O)N4CCOCC4)cc3)s2)cc1		inactive: -19.8%
COCOCCn1cc(CN2CCS(=O)(=O)N(Cc3ccc(-c4ccc(OC)c(OC)c4)cc3)C(C)C2=O)nn1 (centres undefined)	active: 16.4 µM	
COc1ccc2[nH]c3c(c2c1)CCN1C(=O)C(CC(=O)NCCC2=CCCCC2)C[C@H](C(=O)N2CCCCC2)[C@@]31CCc1ccccc1 (some centres undefined)	inconclusive: 18.4 µM [inhibitor, single point]	
O=C(c1cc(C(F)(F)F)cc(C(F)(F)F)c1)N1CCC2(CC1)CCN(c1ccccn1)CC2	active: 20.6 µM	
CC(C)C[C@H](NC(=O)OC(C)(C)C)c1nnc(SCc2cccc(F)c2)o1	inconclusive: 29.1 µM [inhibitor, single point]	
CC(C)Cn1c(N)c(C(=O)COC(=O)COc2cccc(C(F)(F)F)c2)c(=O)n(C)c1=O		inactive: -19.2%
O=c1c(-c2cc3ccccc3[nH]2)nc2ccccc2n1C(CCc1ccccc1)c1nc2ccccc2[nH]1 (centres undefined)	inconclusive: 20.6 µM [inhibitor, single point]	
O=C(Nc1cccc(S(=O)(=O)N2CCOCC2)c1)c1ccc(N2CCOCC2)c([N+](=O)[O-])c1	inconclusive: 23.1 µM [inhibitor, single point]	
Cc1cc(NC(=O)Nc2cccc(C)c2C)no1	inconclusive: 18.4 µM [inhibitor, single point]	
Cc1ccc(C(=O)NCC(=O)OCC(=O)Nc2cc(C)c(C)cc2[N+](=O)[O-])cc1		inactive: 2.33%
CN1CCN(C(=O)c2cc3c(c(-c4cccc(-c5cccnc5)c4)n2)[C@H](CCO)N(C(=O)CC2CC2)C3)CC1		inactive: 0.039%
CCC1(CC)C(=O)C2=C3C1[C@H](C(=O)OC)C=C(C(=O)OC)C[C@H]3n1c(=O)n(C)c(=O)n1[C@H]2C (some centres undefined)	inconclusive: 0.0046 µM [inhibitor, full curve, poor fit]	
CCOc1ccc(C(=O)N2CCN(c3cccc(C)c3C)CC2)cc1	inconclusive: 29.1 µM [inhibitor, single point]	
CC1CCCCC12NC(=O)N(CC(=O)Nc1ccc(OC(F)F)cc1)C2=O (centres undefined)	inconclusive: 25.9 µM [inhibitor, single point]	
O=C(COc1ccc(Cl)cc1Cl)NNC(=S)NCc1ccco1	inconclusive: 13 µM [inhibitor, partial curve, poor fit]	
Clc1ccc(OCCCN2CCc3ccccc3C2)c(Br)c1	inconclusive: 29.1 µM [inhibitor, single point]	
Cc1ccc(S(=O)(=O)N(CC(=O)Nc2cccnc2)c2ccc(Br)cc2)cc1	inconclusive: 29.1 µM [inhibitor, single point]	
CCOC(=O)c1cc(S(=O)(=O)N2CC(C)CC(C)C2)cn1C (centres undefined)	inconclusive: 25.9 µM [inhibitor, single point]	
COc1cccc(NS(=O)(=O)c2ccc3c(c2)[C@H]2C=CC[C@H]2[C@@H](c2ccccc2Cl)N3)c1	active: 8.2 µM	
OCCCNc1ncnc2scc(-c3ccc(Cl)cc3)c12	inconclusive: 6.51 µM [inhibitor, partial curve]	
CC1Cc2ccccc2N1CC(=O)Nc1ccc2c(c1)OCO2 (centres undefined)		inactive: -25.7%
Cc1cnc(NC(=O)CN2CCN(c3ccccn3)CC2)s1	inconclusive: 20 µM [inhibitor, single point] and inconclusive: 29.1 µM [inhibitor, single point]	
